According to the supplement of paper PMC4996465:

What was measured:
KB3-1 [1] = assay: log AC50 of viability decrease (48 h) (log10 M); higher = less potent
Protocol: (§1)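 Eleven-dose screen of the NCATS MIPE 3 library on cells without co-treatment; CellTiter-Glo after 48 h. AC50 from the curve fit; only inhibitory curves of the better fit classes are listed.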

Nalm-6 [2] = assay: as above
Protocol: as §1

KB3-1 [3] = assay: viability (% of DMSO control); higher = more viable cells
Protocol: (§2)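 Eleven-dose screen of the NCATS MIPE 3 library on cells without co-treatment; CellTiter-Glo after 48 h, as % of DMSO wells.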

Nalm-6 [4] = assay: as above
Protocol: as §2

SMILES | log AC50 of viability decrease (KB3-1 [1]) | log AC50 of viability decrease (Nalm-6 [2]; run: 1) | log AC50 of viability decrease (Nalm-6 [2]; run: 2) | viability (KB3-1 [3]; 0.00078 µM) [%] | viability (KB3-1 [3]; 0.00234 µM) [%] | viability (KB3-1 [3]; 0.00702 µM) [%] | viability (KB3-1 [3]; 0.0211 µM) [%] | viability (KB3-1 [3]; 0.0632 µM) [%] | viability (KB3-1 [3]; 0.19 µM) [%] | viability (KB3-1 [3]; 0.569 µM) [%] | viability (KB3-1 [3]; 1.71 µM) [%] | viability (KB3-1 [3]; 5.12 µM) [%] | viability (KB3-1 [3]; 15.4 µM) [%] | viability (KB3-1 [3]; 46.1 µM) [%] | viability (Nalm-6 [4]; run: 1, 0.00078 µM) [%] | viability (Nalm-6 [4]; run: 1, 0.00234 µM) [%] | viability (Nalm-6 [4]; run: 1, 0.00702 µM) [%] | viability (Nalm-6 [4]; run: 1, 0.0211 µM) [%] | viability (Nalm-6 [4]; run: 1, 0.0632 µM) [%] | viability (Nalm-6 [4]; run: 1, 0.19 µM) [%] | viability (Nalm-6 [4]; run: 1, 0.569 µM) [%] | viability (Nalm-6 [4]; run: 1, 1.71 µM) [%] | viability (Nalm-6 [4]; run: 1, 5.12 µM) [%] | viability (Nalm-6 [4]; run: 1, 15.4 µM) [%] | viability (Nalm-6 [4]; run: 1, 46.1 µM) [%] | viability (Nalm-6 [4]; run: 2, 0.00078 µM) [%] | viability (Nalm-6 [4]; run: 2, 0.00234 µM) [%] | viability (Nalm-6 [4]; run: 2, 0.00702 µM) [%] | viability (Nalm-6 [4]; run: 2, 0.0211 µM) [%] | viability (Nalm-6 [4]; run: 2, 0.0632 µM) [%] | viability (Nalm-6 [4]; run: 2, 0.19 µM) [%] | viability (Nalm-6 [4]; run: 2, 0.569 µM) [%] | viability (Nalm-6 [4]; run: 2, 1.71 µM) [%] | viability (Nalm-6 [4]; run: 2, 5.12 µM) [%] | viability (Nalm-6 [4]; run: 2, 15.4 µM) [%] | viability (Nalm-6 [4]; run: 2, 46.1 µM) [%]
Cc1ccc(C(=O)Nc2cccc(C(F)(F)F)c2)cc1-c1ccc2nc(NCCN3CCOCC3)ncc2c1 [AMG-47a] | -4.88 | -4.78 | -4.83 | 106 | 104 | 113 | 116 | 119 | 111 | 106 | 87.7 | 64.4 | 50.4 | 9.2 | 113 | 109 | 102 | 114 | 116 | 102 | 105 | 85.9 | 75 | 47.7 | 0.41 | 96.2 | 104 | 104 | 103 | 98.6 | 101 | 92 | 94 | 70.6 | 42 | 0.202
COC1=C(OCCCN2CCOCC2)C=C3N=CC=C(OC4=CC=C(C=C4F)\C5=C\N=C(\NC6=CC=C(F)C=C6)N(C)C5=O)C3=C1 [AMG-51] | -4.68 | -4.83 | -4.73 | 100 | 102 | 97.6 | 102 | 101 | 93.5 | 97 | 88.8 | 84 | 75.2 | 2.19 | 95.1 | 96 | 100 | 105 | 109 | 100 | 91.4 | 88.4 | 72.7 | 37.4 | 0.953 | 103 | 97.2 | 99.4 | 96.5 | 101 | 90.9 | 90.5 | 88 | 65.9 | 56.6 | 1.57
CNc1nccc(-c2cccnc2Oc2cc(C(=O)Nc3cccc(C(F)(F)F)c3)ccc2C)n1 [AMG-Tie2-1] | -4.63 | -4.83 | -4.83 | 103 | 106 | 103 | 102 | 109 | 103 | 105 | 99 | 96 | 88.8 | 5.96 | 101 | 106 | 96.8 | 102 | 99.4 | 106 | 103 | 100 | 70.1 | 54.9 | 4.84 | 98.6 | 106 | 100 | 101 | 96.7 | 99.4 | 102 | 103 | 76.5 | 46.4 | 5.19
CC(C)[C@H](C(=O)Nc1ccc(C(=O)NO)cc1)c1ccccc1 [AR-42] | -6.88 | -7.48 | -7.38 | 101 | 101 | 98.9 | 86.9 | 73.7 | 46.5 | 30.9 | 21.6 | 14.3 | 16.9 | 9.22 | 104 | 115 | 119 | 88 | 14 | 2.08 | 0.78 | 0.497 | 0.256 | -0.0154 | -0.543 | 108 | 116 | 114 | 92.1 | 30.3 | 5.62 | 2.63 | 2.38 | 2.3 | 1.7 | 0.859
C[C@H]1[C@@H](CC(C[C@H]2O[C@@H]3O[C@]4(C)CC[C@H]5[C@H](C)CC[C@@H]([C@H]2C)[C@@]35OO4)CS(=O)(=O)c2ccc(COC(=O)N(C)C)cc2)O[C@@H]2O[C@]3(C)CC[C@H]4[C@H](C)CC[C@@H]1[C@@]24OO3 [ASR-isobudimer-SO2Ph-4-CH2OC(O)NMe2] | -6.38 | -7.43 | -7.48 | 96.8 | 98.2 | 100 | 91.8 | 99.5 | 77.8 | 41.8 | 36.5 | 24.1 | 19.9 | 7.93 | 101 | 104 | 92.2 | 81 | 30.6 | 14.4 | 9.14 | 8.31 | 9.57 | 7.05 | 3.61 | 110 | 106 | 106 | 91.3 | 15.9 | 6.99 | 4.42 | 4.68 | 5.08 | 5.21 | 2.74
C=CC(=O)Nc1cc2c(Nc3ccc(F)c(Cl)c3)ncnc2cc1C#CC(C)(C)N1CCN(C)CC1 [AV-412] | -4.78 | -6.03 | -6.08 | 102 | 106 | 102 | 104 | 97.8 | 101 | 103 | 95.8 | 81 | 49.5 | -0.184 | 120 | 129 | 125 | 127 | 122 | 109 | 86.8 | 30.9 | 2.24 | 1.09 | -0.922 | 107 | 111 | 113 | 103 | 101 | 95.5 | 70.1 | 21.9 | 1.05 | 0.668 | -0.051

Viability of KB3-1 and Nalm-6 cells after 48 h of drug alone (CellTiter-Glo), 11 doses over about 4.5 log units. % of DMSO wells, lower = more cell loss; AC50 from the fitted curve, lower = more potent. No active / inactive call. Nalm-6 was screened in two runs. AC50 is listed only for well-fitted inhibitory curves. KB3-1 is a HeLa-derived carcinoma line, Nalm-6 a B-cell precursor leukaemia line.
